About 540 (0.36%) of roughly 150,000 compounds showed an effect of 50% or more. The list shows a part of the results.

Broadly, the % Inhibition is the relative decrease from the control value, in per cent.

The test system of the assay is Plasmodium falciparum. Put plainly: Primary screen in NF54 nanoGlo assay, in single point, at 2uM, 72h; a lower Z score goes with more inhibition. The assay is classed as functional, Erythrocyte. To be noted: timepoint 72 hour.
On to `COCc1nc(CN2CCCC2)n(Cc2ccc(F)cc2)n1`, for which the “% Inhibition” value is -3% and the Z score turned out to be 0.31.
For `c1ccc2cc(-c3nnc([C@H]4CC45CCOCC5)o3)ccc2c1`, the “% Inhibition” value is -11% and the Z score is reported as 2.09.
For `CC[C@H](Nc1nnnn1-c1ccccc1)C(=O)Nc1cnn(CC)c1`, in that order: 5% and -0.86.
The corresponding values for `c1c[nH]c([C@H]2CCCN(c3ncnc4c3CCC4)C2)n1` are -3% and 0.42.
For `CCC1OCCCC1C(=O)N[C@H]1C[C@@H](O)C1` (some centres undefined), in that order: -19% and 2.69.
As for `NS(=O)(=O)C1CCN(C(=O)NC[C@H]2C[C@@H]2c2ccccc2)C1` (some centres undefined), the “% Inhibition” value was -8% and the Z score was 1.
Take `COc1ccc(N2CCN(C(=O)c3cc4occc4c(Nc4ccc(C)c(Cl)c4)n3)CC2)cc1`: the “% Inhibition” value is reported as -12% and the Z score came to 1.22.
For `c1nc([C@H]2CCCNC2)cc(N(Cc2ccc3c(c2)OCO3)C2CC2)n1`, in that order: 7% and -0.89.
For `CCN1C(=O)Cc2cc(NS(=O)(=O)Cc3ccccc3Cl)ccc21`, in that order: -10% and 1.43.
For the compound `C[C@H](NC(=O)c1ccc(OC(F)F)cn1)[C@H]1COC(C)(C)O1`, the “% Inhibition” value was -1% and the Z score came out at 0.18.
The corresponding values for `Cc1ccccc1C[C@@]1(C2CCN(C(=O)C3(C)CCCCC3)CC2)NC(=O)N(CCCN(C)C)C1=O` are -1% and 0.09.
For the compound `O=C(NC1CCCCCC1)[C@@H]1CC=CCC1`, the “% Inhibition” value is reported as -9% and the Z score amounted to 1.7.
For `COCC(=O)N(CC(=O)Nc1ccc(N2CCN(C(=O)NC(C)(C)C)CC2)cc1)Cc1ccc(F)cc1`, in that order: -14% and 1.61.
For `CC1(C)C[C@@H](O)CCN(c2ncc(F)c(NCC(F)F)n2)C1`, the “% Inhibition” value is listed as -15% and the Z score is listed as 1.89.
On to `Cc1ccccc1NC(=O)CN1CC(=O)N(CC(=O)Nc2ccccc2C)CC1=O`, for which the “% Inhibition” value stood at 12% and the Z score is given as -1.61.
The corresponding values for `CC1CN(C(=O)CN2C(=O)COc3ccc(Cl)cc32)CC(C)O1` (centres undefined) are -5% and 0.43.
Consider `CC(C)Cc1ccc(CN2CCN(c3ccc4[nH]ncc4c3)C(=O)C2)cc1`, for which the “% Inhibition” value was -1% and the Z score was found to be 0.07.
The corresponding values for `CCn1cc(Cn2cc(C[C@H](O)C(C)(C)C)nn2)nn1` are -3% and 0.55.
On to `Cn1ccnc1CN1CCN2C(=O)N(c3ccccc3)C(=O)[C@@H]2C1`, for which the “% Inhibition” value is listed as 8% and the Z score was -1.36.
Regarding `CCc1ccccc1NC(=O)CN1CCN(C(=O)c2ccc(O)nc2)CC1`, the “% Inhibition” value turned out to be 7% and the Z score is recorded as -0.59.
For `Cc1ccsc1C(=O)N[C@@H](CNC(=O)OC(C)(C)C)C1CC1`, in that order: 9% and -0.87.
For `Cn1cccc1CN1CCCCCNC(=O)[C@@H]2CCC[C@@H]21`, in that order: -8% and 1.09.
Regarding `CC(C)(CNC(=O)C1(O)CCOCC1)c1c(Cl)cccc1Cl`, the “% Inhibition” value is -5% and the Z score was 0.44.
For the compound `CCN(CC)S(=O)(=O)N(C)Cc1ccc(OC)cc1OC`, the “% Inhibition” value is -13% and the Z score was found to be 1.76.
With `COc1ccc(C)cc1CNc1ccccc1N1CCCCC1`, the “% Inhibition” value is listed as -7% and the Z score turned out to be 0.74.
For `CCC1(CC)CN([C@H]2CCC(=O)N(CC3CC3)CC2)CCO1`, in that order: 0% and -0.04.
For `O=C(N[C@H]1CCN(Cc2ccsc2)C1)c1cc2ccccc2[nH]1`, in that order: -4% and 0.62.
In the case of `O=C(NCC1(O)CCOCC1)c1cnn(-c2ccc(F)cc2F)c1`, the “% Inhibition” value is given as -9% and the Z score amounted to 1.2.
As to `O=S1(=O)CCC[C@H](c2nc(-c3nccc4ccccc34)no2)C1`, the “% Inhibition” value is -6% and the Z score came to 1.07.
For `COc1ccc(NC(C)=O)cc1NC(=O)c1cccc2ccsc12`, in that order: -11% and 1.
The corresponding values for `Cc1ccccc1-n1c(=O)n(C[C@H]2CCCO2)c(=O)c2c1ncn2Cc1cccc(F)c1` are -13% and 1.27.
As to `O=C(Nc1ccc2c(n1)CCC2)N1CC(O)CC1c1ccccc1` (centres undefined), the “% Inhibition” value was -1% and the Z score was found to be 0.17.
For `CCc1ccc(S(=O)(=O)N2C[C@H](C)NC(=O)c3ccc(F)cc32)cc1`, the “% Inhibition” value is listed as -5% and the Z score is given as 0.65.
In the case of `CCOc1cc(-c2nnc(NC(=O)c3ccc4c(c3)OCCO4)o2)cc(OCC)c1OCC`, the “% Inhibition” value was 4% and the Z score is reported as -0.57.
In the case of `COc1cc(OC)c(OC)cc1CN1CCC2(CC1)C[C@@H]2C(=O)N1CCCN(C)CC1`, the “% Inhibition” value is reported as -9% and the Z score is 1.23.
With `CC[C@H]1CN(C)CCCN1C(=O)c1cccc(C(=O)O)c1`, the “% Inhibition” value is given as -8% and the Z score was determined as 1.04.
For `CCN(C)c1nc(-c2ccc(F)cc2)ncc1C(=O)N1CCCCC1`, the “% Inhibition” value is 1% and the Z score is on record as -0.11.
For `CCc1nc(NC[C@H]2CN(CC3CCN(CC4CC4)CC3)C(=O)CO2)ncc1C`, in that order: -9% and 1.72.
For `Cc1cc(C)n(CCC(=O)N2C[C@@H]3CC[C@H]2CN(Cc2[nH]cnc2C)C3)n1`, the “% Inhibition” value turned out to be 2% and the Z score is given as -0.37.
The corresponding values for `Cc1ccc(CN2CCN(Cc3ccon3)C[C@@H]2CCO)o1` are -4% and 0.71.
For `CN(c1ccccc1)c1ccccc1C(=O)NCCCN1CCOCC1`, in that order: -3% and 0.28.
Turning to `CCC[C@H](NC1CCN(C(=O)OC)CC1)C1CC1`, the “% Inhibition” value was determined as 7% and the Z score is -0.96.

Source of the values: ChEMBL document CHEMBL4888484, “Replenishing the malaria drug discovery pipeline: Screening and hit evaluation of the MMV Hit Generation Library 1 (HGL1) against asexual blood stage Plasmodium falciparum ,using a nano luciferase reporter read-out” (2022).
